Test results published in the supplement of paper PMC9446081.
Hit rate of the full screen: of about 39,000 compounds, about 220 (0.56%) showed activity. Some of the results follow.

system: Escherichia coli K-12 BW25113; experiment: relative growth (OD600 normalised to plate interquartile mean) (fraction); higher = less growth inhibition, active = 0.2 or less; conditions: 50 µM; LB; incubation time: overnight (16-24 h)
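Also: static incubation at 37 °C against the wild-type strain, values averaged over two biological replicates.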

Row | SMILES | relative growth
1 | Cc1ccc(S(=O)(=O)N(C)C[C@H]2Oc3ncc(C#CCC(C)C)cc3C(=O)N([C@H](C)CO)C[C@@H]2C)cc1 | inactive: 1
2 | C[C@H](CO)N1C[C@H](C)[C@H](CN(C)Cc2ccc(C(=O)Nc3ccccc3N)cc2)Oc2ccc(NC(=O)Nc3ccc(F)cc3)cc2CC1=O | inactive: 0.976
3 | COC(=O)c1c(CC[C@@H](CO)NC(=O)N[C@H](Cn2cc(Cc3ccccc3)nn2)C(C)C)oc(C(C)=O)c1C(=O)OC | inactive: 0.996
4 | CCCOc1cc(C)c(N)cc1C | inactive: 1
5 | O=C1OC(=O)[C@H]2[C@@H]1[C@H]1CC[C@H]2O1 | active: 0.16
6 | C[C@H]1CN([C@@H](C)CO)C(=O)c2cccc(NC(=O)Nc3ccc(C(F)(F)F)cc3)c2O[C@H]1CN(C)Cc1ccc2c(c1)OCO2 | inactive: 0.972
7 | CN(C)CCCCNC(=O)[C@@H]1C[C@@H]2C(=O)N[C@@H](CCCC[N+](C)(C)C)C(=O)N2[C@@H]1c1ccc(O)cc1 | inactive: 0.993
8 | C[C@@H]1CN([C@@H](C)CO)C(=O)Cc2cc(NS(C)(=O)=O)ccc2O[C@@H]1CN(C)C(=O)Nc1ccccc1 | inactive: 1.02
9 | CC(C)NC(=O)Nc1ccc2c(c1)C(=O)N([C@@H](C)CO)C[C@@H](C)[C@@H](CN(C)S(=O)(=O)c1ccc(F)cc1)O2 | inactive: 1
10 | C[C@H](CO)N1C[C@H](C)[C@H](CN(C)C(=O)C2CCCCC2)OCCCC[C@H](C)Oc2ccc(NC(=O)C3CCCCC3)cc2C1=O | inactive: 0.999
11 | Cc1noc(C)c1NC(=O)N(C)C[C@H]1Oc2ccc(NC(=O)Cn3cnnn3)cc2CC(=O)N([C@@H](C)CO)C[C@@H]1C | inactive: 1
12 | COc1ccc(S(=O)(=O)N(C)C[C@H]2Oc3c(NS(=O)(=O)c4cn(C)cn4)cccc3C(=O)N([C@H](C)CO)C[C@H]2C)cc1 | inactive: 1.01
13 | C[C@@H]1CN([C@@H](C)CO)C(=O)c2ccccc2-c2ccccc2CO[C@H]1CN(C)S(=O)(=O)c1ccc(C(F)(F)F)cc1 | inactive: 1.06
14 | CCOC(=O)c1c(C)cc(O)cc1O | inactive: 0.997
15 | Cc1noc(C)c1NC(=O)Nc1ccc2c(c1)C(=O)N([C@H](C)CO)C[C@H](C)[C@H](CN(C)Cc1ccc(C(=O)O)cc1)OCCCC[C@H](C)O2 | inactive: 1.03
16 | CN1C2=CC(=O)/C(=N\NC(N)=O)C=C2C[C@H]1S(=O)(=O)O | inactive: 1.02
17 | C[C@H](CO)N1C[C@H](C)[C@@H](CN(C)C(=O)Cc2ccccc2)OCCCC[C@H](C)Oc2ccc(NC(=O)NC3CCCCC3)cc2C1=O | inactive: 0.973
18 | C[C@H]1CN([C@@H](C)CO)C(=O)c2cccc(NC(=O)c3cnccn3)c2O[C@@H]1CN(C)CC1CCCCC1 | inactive: 0.984
19 | Cc1ccc(S(=O)(=O)Nc2ccc3c(c2)C(=O)N([C@@H](C)CO)C[C@@H](C)[C@H](CN(C)Cc2ccc(C(=O)O)cc2)OCCCC[C@@H](C)O3)cc1 | inactive: 0.975
20 | Cc1ccc(S(=O)(=O)Nc2ccc3c(c2)CC(=O)N([C@H](C)CO)C[C@H](C)[C@H](CN(C)Cc2ccc(C(F)(F)F)cc2)O3)cc1 | inactive: 1.01
21 | O=C(C[C@@H]1CC[C@@H]2[C@H](COC[C@H](O)CN2C(=O)Nc2cccc(F)c2)O1)NCCCN1CCOCC1 | inactive: 0.957

Row | SMILES | relative growth
22 | CCCOc1ccc(S(=O)(=O)N2CCN(CCO)CC2)cc1-c1nc2c(CCC)cn(CC)c2c(=O)[nH]1 | inactive: 1.01
23 | CC12C=CC(=O)C=C1CCC1C2C(O)CC2(C)C1CCC2(O)C(=O)CO (stereo unspecified) | inactive: 1.05
24 | C[C@H](CO)N1C[C@H](C)[C@H](CN(C)Cc2ccc(Oc3ccccc3)cc2)Oc2ccc(NC(=O)Cc3cn(C)c4ccccc34)cc2C1=O | inactive: 1.08
25 | COc1ccc2cc1Oc1ccc(cc1)C[C@H]1c3c(cc4c(c3Oc3cc5c(cc3OC)CCN(C)[C@@H]5C2)OCO4)CCN1C | inactive: 0.993
26 | COc1cccc(S(=O)(=O)N[C@H]2CC[C@H](CCn3cc(-c4ccccc4OC)nn3)O[C@H]2CO)c1 | inactive: 1.02
27 | CC(C)NC(=O)N(C)C[C@H]1Oc2c(NS(=O)(=O)c3cn(C)cn3)cccc2C(=O)N([C@H](C)CO)C[C@H]1C | inactive: 0.992
28 | Cc1cccc(C)c1NC(=O)[C@@H](C)N | inactive: 0.973
29 | CCCC(=O)Nc1ccc2c(c1)OC[C@@H](C)N(Cc1ccc(-c3ccccn3)cc1)C[C@H](C)[C@H](OC)CN(C)C2=O | inactive: 0.994
30 | Cc1cc(C(=O)Nc2cccc3c2O[C@@H](CN(C)Cc2ccc(C(=O)O)cc2)[C@@H](C)CN([C@H](C)CO)C3=O)n(C)n1 | inactive: 0.989
31 | C[C@H]1CN([C@@H](C)CO)S(=O)(=O)c2ccc(C#CC3CC3)cc2O[C@@H]1CN(C)Cc1ccc(F)cc1 | inactive: 1.03
32 | O=C1O[C@H](CO)[C@@H](O)[C@H](O)[C@H]1O | inactive: 1.01
33 | CC(C)N1C[C@H](CN(C)Cc2ccc(Oc3ccccc3)cc2)Oc2c(NC(=O)c3ccncc3)cccc2C1=O | inactive: 1.03
34 | C[C@@H]1CCCCO[C@@H](CN(C)C(=O)CCC(F)(F)F)[C@H](C)CN([C@H](C)CO)C(=O)c2cc(NC(=O)NC3CCCCC3)ccc2O1 | inactive: 1.03
35 | C[C@@H]1CN([C@@H](C)CO)S(=O)(=O)c2ccc(C#Cc3ccncc3)cc2O[C@H]1CN(C)C(=O)C1CCOCC1 | inactive: 0.999
36 | CO[C@H]1CN(C)C(=O)c2ccc(NS(=O)(=O)c3cn(C)cn3)cc2OC[C@@H](C)N(CCC(F)(F)F)C[C@@H]1C | inactive: 0.944
37 | C[C@H]1CN([C@@H](C)CO)S(=O)(=O)c2ccc(C#CCN(C)C)cc2O[C@@H]1CN(C)S(=O)(=O)c1cccc(F)c1 | inactive: 1
38 | COC[C@@H](O)CNc1ncnc2c1CCNCC2 | inactive: 0.979
39 | C/C(=N\N)c1ccc2ccccc2c1 | inactive: 1.03
40 | CN(C)CCCCNC(=O)[C@H]1C[C@H]2C(=O)N[C@@H](CCCCN(C)C)C(=O)N2[C@H]1c1cccc(OCCO)c1 | inactive: 0.961
41 | C[C@H]1CN([C@@H](C)CO)C(=O)c2c(c3ccccc3n2C)-c2ccccc2CO[C@@H]1CN(C)S(=O)(=O)c1ccc(C(F)(F)F)cc1 | inactive: 1
